Reference: the supplement of paper PMC3334620
In all, about 33,000 sequences were measured (“E-score (-0.5 to 0.5)”: median about -0.04, highest 2% from about 0.36 on). Some of the results follow.

The sequences below were run against T1, Hmlalpha2 (UniProt P0CY09) (assay: PBM E-score (8-mer binding enrichment) (E-score (-0.5 to 0.5)); higher = stronger / more preferred TF binding; most listed sequences are background and not binding sites). Details: protein concentration: 200 nM; construct: GST-full length.
T1 sequence: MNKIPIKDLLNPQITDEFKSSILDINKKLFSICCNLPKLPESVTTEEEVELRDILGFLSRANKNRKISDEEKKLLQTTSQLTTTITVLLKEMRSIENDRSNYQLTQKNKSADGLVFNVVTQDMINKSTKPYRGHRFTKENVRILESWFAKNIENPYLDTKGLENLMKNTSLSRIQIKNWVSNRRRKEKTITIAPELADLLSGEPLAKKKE
How it was run: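 PURExpress in vitro transcription/translation supplied GST-tagged yeast transcription factors, either full-length or DNA-binding domain. Applied at about 100-200 nM to universal all-10-mer Agilent arrays double-stranded by primer extension, the bound protein was detected with fluorescent anti-GST. E-scores, modified Wilcoxon-Mann-Whitney statistics, were given by the Universal PBM Analysis Suite to ungapped eight-base words pooled with their reverse complements after masliner normalisation.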
With CGCTAGCA the “PBM E-score” value was -0.0248. For ATGTCGGG, the “PBM E-score” value was 0.2. In the case of CAGATCGA, the “PBM E-score” value is reported as -0.0764. With AGGCCGAG the “PBM E-score” value was -0.104. TGGCTGAA was tested, and the “PBM E-score” value was -0.197. CTCCAAAG was tested, and the “PBM E-score” value was -0.0343. For AAGATGCC, the “PBM E-score” value was -0.25. With ACTTTAGC the “PBM E-score” value was -0.225. In the case of AGGGGAAC, the “PBM E-score” value is reported as -0.373. With CATAAACC the “PBM E-score” value was 0.017. With CCTACTCG the “PBM E-score” value was -0.202. In the case of AGGTATGG, the “PBM E-score” value is reported as -0.317. For GATACATC, the “PBM E-score” value was 0.169. For AAAAAACT, the “PBM E-score” value was 0.0379. For ATGTCTAC, the “PBM E-score” value was 0.179. ATGTTGGA was tested, and the “PBM E-score” value was 0.29. For GCTTTCCA, the “PBM E-score” value was -0.0557. With GGTTTTCA the “PBM E-score” value was 0.14. With CATTTCCC the “PBM E-score” value was 0.00326. TACTCTGA was tested, and the “PBM E-score” value was -0.128. For ATAATGCC, the “PBM E-score” value was -0.127. For CGTCCTAA, the “PBM E-score” value was -0.108. In the case of GCGTGCAC, the “PBM E-score” value is reported as -0.102. CATAACGG was tested, and the “PBM E-score” value was -0.136. For GACCTAGA, the “PBM E-score” value was -0.12. CGCGTTAC was tested, and the “PBM E-score” value was 0.212. With TTCTAAAA the “PBM E-score” value was 0.0933. With GTTAAAAC the “PBM E-score” value was 0.343. For CCTGTCAG, the “PBM E-score” value was -0.241. AAGTAGCA was tested, and the “PBM E-score” value was -0.0251. In the case of ATGGAACC, the “PBM E-score” value is reported as -0.167. In the case of ACTGCGCC, the “PBM E-score” value is reported as -0.258. For AGGATTTC, the “PBM E-score” value was -0.195. In the case of ACGGGTCT, the “PBM E-score” value is reported as -0.217. For AAAATACA, the “PBM E-score” value was 0.334. With CGAATAGC the “PBM E-score” value was -0.115. With CAGTCACC the “PBM E-score” value was -0.208. With GAAGGGCA the “PBM E-score” value was -0.288. ATAACAAA was tested, and the “PBM E-score” value was 0.302. With ACCTTGTG the “PBM E-score” value was 0.17. With ACAACTTA the “PBM E-score” value was 0.228. AGACAGGG was tested, and the “PBM E-score” value was -0.282. With GTCCGTTA the “PBM E-score” value was -0.0125. With AGCCTGTG the “PBM E-score” value was -0.0945. For ATCTCTAC, the “PBM E-score” value was 0.104. In the case of GACTTTAA, the “PBM E-score” value is reported as -0.0185. In the case of CACTGCCG, the “PBM E-score” value is reported as -0.165. For CCCCCACG, the “PBM E-score” value was -0.262. In the case of GTCATGCA, the “PBM E-score” value is reported as 0.133. With ACATCGGA the “PBM E-score” value was 0.0659. For CTTCCTGC, the “PBM E-score” value was -0.0744. In the case of CAGTGCTA, the “PBM E-score” value is reported as -0.197. AAATTAAG was tested, and the “PBM E-score” value was 0.0964. With CCATGCGG the “PBM E-score” value was -0.12. In the case of CTATAACC, the “PBM E-score” value is reported as -0.0529. AGTTATTA was tested, and the “PBM E-score” value was 0.214. With AAGGAGAC the “PBM E-score” value was -0.0366. With CGCGTTTA the “PBM E-score” value was 0.266. For AGGTAGCA, the “PBM E-score” value was -0.164. For ACATGCTA, the “PBM E-score” value was 0.379. CGAAGCCG was tested, and the “PBM E-score” value was -0.267. CTAATTAC was tested, and the “PBM E-score” value was 0.362. AGCAATAT was tested, and the “PBM E-score” value was 0.0158. For AGAGTCAA, the “PBM E-score” value was -0.224. For GGTAATAA, the “PBM E-score” value was 0.178. In the case of CTTGTGGA, the “PBM E-score” value is reported as -0.0735. With ATGTACGG the “PBM E-score” value was 0.147. With CATGGGAA the “PBM E-score” value was 0.107. In the case of GATGGTAA, the “PBM E-score” value is reported as -0.0264. In the case of CGACGTCG, the “PBM E-score” value is reported as -0.0462. GACAGAGA was tested, and the “PBM E-score” value was 0.134. In the case of AGTTGGCG, the “PBM E-score” value is reported as -0.172. GATTATCA was tested, and the “PBM E-score” value was 0.0169. In the case of ACCATAGG, the “PBM E-score” value is reported as -0.168. For CGAAGTCG, the “PBM E-score” value was 0.137. For GAGTTAGA, the “PBM E-score” value was -0.0875. With AATAAAAA the “PBM E-score” value was 0.23. In the case of ACCCATTA, the “PBM E-score” value is reported as 0.0874. With GCGTATCC the “PBM E-score” value was 0.0764. With CCCACGCG the “PBM E-score” value was -0.223. In the case of CGAACACG, the “PBM E-score” value is reported as 0.254. In the case of GTGCTTGA, the “PBM E-score” value is reported as 0.0547. In the case of AAGGGGCT, the “PBM E-score” value is reported as -0.0207. For CAAGTGTG, the “PBM E-score” value was 0.0681. In the case of CCGATGCG, the “PBM E-score” value is reported as -0.121. In the case of GGCTTGGA, the “PBM E-score” value is reported as -0.241. CGGTACGA was tested, and the “PBM E-score” value was -0.0787. For AGTCGTAT, the “PBM E-score” value was 0.0171. CTTAAATA was tested, and the “PBM E-score” value was -0.101. CGACCCTA was tested, and the “PBM E-score” value was -0.16. In the case of GGTGACCA, the “PBM E-score” value is reported as -0.225. In the case of AATTGCCG, the “PBM E-score” value is reported as -0.102. In the case of ACTCCCCG, the “PBM E-score” value is reported as -0.0984. With GGCGGACA the “PBM E-score” value was -0.303. GCCAGTTA was tested, and the “PBM E-score” value was 0.0175. CTCTAGGC was tested, and the “PBM E-score” value was -0.201. With CCGGACGG the “PBM E-score” value was -0.226. GGAGACCA was tested, and the “PBM E-score” value was -0.221. For CCCTGCTC, the “PBM E-score” value was -0.261. In the case of CTGCGTGC, the “PBM E-score” value is reported as 0.106. With CGGCATGA the “PBM E-score” value was -0.128. In the case of AGGGTGAA, the “PBM E-score” value is reported as -0.0754. With CATATTCA the “PBM E-score” value was 0.179. For CTTTACCC, the “PBM E-score” value was 0.0677. With CGCCCTTA the “PBM E-score” value was -0.101. CACTGATC was tested, and the “PBM E-score” value was -0.133. CCTGAAAC was tested, and the “PBM E-score” value was 0.0126. For AGGCGCAC, the “PBM E-score” value was -0.199. In the case of CGAGTACC, the “PBM E-score” value is reported as 0.0986. With CACTTCAA the “PBM E-score” value was 0.2. For AATGATAC, the “PBM E-score” value was 0.142. For ACAACCGG, the “PBM E-score” value was 0.0897. For GACGTCTA, the “PBM E-score” value was -0.189. With ATACTGTA the “PBM E-score” value was 0.157. CATTTGCC was tested, and the “PBM E-score” value was -0.299. In the case of TTCTGAAA, the “PBM E-score” value is reported as 0.0341. For AAACAACT, the “PBM E-score” value was 0.0928. CACCTCCC was tested, and the “PBM E-score” value was -0.275. In the case of AAATTAGC, the “PBM E-score” value is reported as 0.0486. In the case of CGGTCAGC, the “PBM E-score” value is reported as -0.154. AAAGAGGA was tested, and the “PBM E-score” value was -0.304. In the case of GTATATCA, the “PBM E-score” value is reported as 0.292. GCCGAGCA was tested, and the “PBM E-score” value was -0.332. For GGAGGTTA, the “PBM E-score” value was -0.0713. For AGAAGGGA, the “PBM E-score” value was -0.329. With GGAAGGGA the “PBM E-score” value was -0.452. In the case of ACGGCCGC, the “PBM E-score” value is reported as -0.024. With AGGGGAAT the “PBM E-score” value was -0.112. In the case of GGAAGCAC, the “PBM E-score” value is reported as 0.0403. With CATATCCC the “PBM E-score” value was 0.0687. In the case of CGACTCAC, the “PBM E-score” value is reported as -0.21. CTTAGAGA was tested, and the “PBM E-score” value was -0.198. In the case of CTAGAGAA, the “PBM E-score” value is reported as -0.111. For CGCAAAAG, the “PBM E-score” value was -0.031. TATTGCAA was tested, and the “PBM E-score” value was 0.0893. CGTACCTA was tested, and the “PBM E-score” value was -0.0874. In the case of CAAAAGAC, the “PBM E-score” value is reported as -0.0821. With CAAGGCCC the “PBM E-score” value was -0.164. With AGAATCGG the “PBM E-score” value was -0.092. In the case of TTAGTGAA, the “PBM E-score” value is reported as 0.122. ACTATATG was tested, and the “PBM E-score” value was 0.0852. GAGGATGC was tested, and the “PBM E-score” value was -0.14. For GATGCCCA, the “PBM E-score” value was -0.13. AACCTCAG was tested, and the “PBM E-score” value was -0.0975. In the case of TACCAGGA, the “PBM E-score” value is reported as -0.0294. In the case of AAGCAAGG, the “PBM E-score” value is reported as -0.0396. With ATGTAGCA the “PBM E-score” value was 0.185. With TAAAGTCA the “PBM E-score” value was 0.0157. CTGGCGCC was tested, and the “PBM E-score” value was -0.196. CACCCTAC was tested, and the “PBM E-score” value was 0.132. With CGTGATCC the “PBM E-score” value was -0.167. In the case of CTGAGCTC, the “PBM E-score” value is reported as -0.199. For CCCTAAAG, the “PBM E-score” value was -0.33. CGGGGAGA was tested, and the “PBM E-score” value was -0.256. CTCGCTCA was tested, and the “PBM E-score” value was -0.0687. GCATATAA was tested, and the “PBM E-score” value was 0.126. With ATCGGATA the “PBM E-score” value was 0.146. In the case of CTGCCTTA, the “PBM E-score” value is reported as -0.206. In the case of CACATTGC, the “PBM E-score” value is reported as 0.245. For CTTCATTC, the “PBM E-score” value was -0.149. ACTACGAC was tested, and the “PBM E-score” value was 0.0185. ATATCTGG was tested, and the “PBM E-score” value was -0.124. With CTCCGCAG the “PBM E-score” value was -0.23. With CGTAGAAG the “PBM E-score” value was 0.17. In the case of GGTTTGAC, the “PBM E-score” value is reported as -0.00499. With ATACGTGG the “PBM E-score” value was 0.181. With TAAATCCA the “PBM E-score” value was 0.0603. In the case of GTCCCCTA, the “PBM E-score” value is reported as -0.161. CTTCCCGC was tested, and the “PBM E-score” value was -0.0834. With CATACGAA the “PBM E-score” value was 0.104. For AGTGAACT, the “PBM E-score” value was 0.0194. CCTAATCC was tested, and the “PBM E-score” value was -0.224.
